Measured values taken from the RNAGym collection of RNA variant scans (doi:10.1101/gad.245936.114).
Variants at the floor of the assay are shown more often than the library holds them.

B1: tRNA (parent)
chain: CUCUCGGUAGCCAAGUUGGUUUAAGGCGCAAGACUUUAAUUUAUCACUACGAAAUCUUGAGAUCGGGCGUUCGACUCGCCCCCGGGAGAUUUUUUCCUCGAGCAA

Variants of: B1
Assay: nonsense suppression (GFP-seq) (ratio to wild type); higher = more function; SUP4oc tRNA, yeast GFP reporter sort-seq
Outline: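 To measure nonsense suppression, tRNA variants from a library carrying ~3% random mutations were integrated into the yeast genome alongside RFP and a GFP ochre reporter under galactose control. Growth took place in raffinose/galactose medium supplemented with 80 mg/L adenine, followed by sorting into GFP/RFP bins and Illumina sequencing of each bin (phred ≥30). For each variant with ≥100 reads and ≥30 cells, the bin median GFP/RFP values were weighted by its estimated cell share per bin and referenced to the unmutated parent tRNA.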

Variant | nonsense suppression
CUCUCGAUAGCCAAGUUGGUUUAAGGCGCAAGACUUUAAUUUAUCACUACGAAAUCUUGAGAUCGGUCGUUCGACUCGCCCCCGAGAGAUUUUUUCCUCGAGCAA [G7A G67U G85A] | ≤ 0.026
CUCUCGAUAGCCAAGUUGGUUUAAGGCGCAAGACUUUAAUUUAUCACUACGAAAUCUUGAGAUCGGGCAUUCGACUCGCCCCCGGGAGAUUUUUUCCUCGAGCAA [G7A G69A] | ≤ 0.026
CUCUCGAUAGCCAAGUUGGUUUAAGGCGCAAGACUUUAAUUUAUCACUACGAAAUCUUGAGAUCGGGCGUUCGACUCGCCCCCGGAACAUUUUUUCCUCGAGCAA [G7A G86A G88C] | ≤ 0.026
CUCUCGAUAGCCAAGUUGGUUUAAGGCGCAAGACUUUAAUUUAUCACUACGAAAUCUUGAGAUCGGGCGUUCGACUCGCCCCCGGUAGAUUUUUUCCUCGAGCAA [G7A G86U] | ≤ 0.026
CUCUCGAUAGCCAAGCUGGCUUAAGGCGCAAGACUUUAAUUUAUCACUACGAAAUCAUUUAAUCGGGCGUUCGACUCGCCCCCGUGAGAUUUUUUCCUCGAGCAA [G7A U16C U20C U57A G59U A60U G61A G85U] | ≤ 0.026
CUCUCGAUAGCCAAGUAGGUUUAAGGCGAAAGACUUUAAUUUAUCACUACGAAAUCUUGAGAUCGGGCGUUAGACUCGCCCCCGCGAGAUUUUUUCCUCGAGCAA [G7A U17A C29A C72A G85C] | ≤ 0.026
CUCUCGAUAGCCAAGUCGGUUUAGGGCGCAAUACUUUAAUUUAUCACUACGAAAUCUUGAGAUCGGGCGUCCGACUCGCCCCCGGGUGAUUUUUUCCUCGAGCAA [G7A U17C A24G G32U U71C A87U] | ≤ 0.026
CUCUCGAUAGCCAAGUUGGAUUAAGGCGCAAGACUUUAAUUUAUCACUACGAAAUCUUGAGAUCGGGCGUUGGACUCGCCCCCGGGAGAUUUUUUCCUCGAGCAA [G7A U20A C72G] | ≤ 0.026
CUCUCGAUAGCCAAGUUGGGUUAAGGCGCAAGACUUUAAUUUAUCACUACGAAAUCUUGAGAUCGGGCGUUCGACUCGCCCCCGGGAGAUUUUUUCCUCGAGCAA [G7A U20G] | ≤ 0.026
CUCUCGAUAGCCAAGUUGGGUUAAGGCGCAAGAUUUUAAUUUAUCACUACGAAAUCCUGAGAUAGGGCGUUCGACUCGUCCCCGGGACAUUUUUUCCUCGAGCAA [G7A U20G C34U U57C C64A C79U G88C] | ≤ 0.026
CUCUCGAUAGCCAAGUUGGGUUAAGACGCAAGACUUUAAUUUAUCACUACGAAAUCUUGAGAUCGGGCGUUCGACUCGCCCCCGGGAGAUUUUUUCCUCGAGCAA [G7A U20G G26A] | ≤ 0.026
CUCUCGAUAGCCAAGUUGGUUCAAGGCGCAAGACUUUAAUUUAUCACUACGAAAUCUUGAGAUCGGGCGUUCGACUCGCCCCCGGGAGAUUUUUUCCUCGAGCAA [G7A U22C] | ≤ 0.026
CUCUCGAUAGCCAAGUUGGUUUAAGGCGCAAGACCUUAAUUUAUCACUACGAAGUCUUGAGAGCGGGCGUACGACUCGCCCCCGGGAGAUUUUUUCCUCGAGCAA [G7A U35C A54G U63G U71A] | ≤ 0.026
CUCUCGAUAGCCAAGUUGGUUUAAGGCGCAAGACCUUAAUUUAUCACUACGAAAUCUUGAGAUCGCACGUUCGACUCGCCCCCGGGAGAUUUUUUCCUCGAGCAA [G7A U35C G66C G67A] | ≤ 0.026
CUCUCGAUAGCCAAGUUGGUUUAAGGCGCAAGACUUUAAUUUAUCACUACGAAAUCGUGAGAUCGGGCGUUCGACUCGCCCCCGGGAGAUUUUUUCCUCGAGCAA [G7A U57G] | ≤ 0.026
CUCUCGAUAGCCAAGUUGGUUUAAGGCGCAAGACUUUAAUUUAUCACUACGAAAUCUGGAGAUCGGGCGGUCGACUCGCCCCCGGGAGAUUUUUUCCUCGAGCAA [G7A U58G U70G] | ≤ 0.026
CUCUCGAUAGCCAAGUUGGUUUAAGGCGCAAGACUUUAAUUUAUCACUACGAAAUCUUGAGAACGGGCGUUCGACUCGCCCCCGGGAGAUUUUUUCCUCGAGCAA [G7A U63A] | ≤ 0.026
CUCUCGAUAGCCAAGUUGGUUUAAGGCGCAAGACUUUAAUUUAUCACUACGAAAUCUUGAGAACGGGCGUUCGACUCGCCCCCGGGGGAUUUUUUCCUCGAGCAA [G7A U63A A87G] | ≤ 0.026
CUCUCGAUAGCCAAGUUGGUUUAAGGCGCAAGACUUUAAUUUAUCACUACGAAAUCUUGAGAACGGGCGUUCGACUCGCCCCCGGGAGCUUUUUUCCUCGAGCAA [G7A U63A A89C] | ≤ 0.026
CUCUCGAUAGCCAAGUUGGUUUAAGGCGCAAGACUUUAAUUUAUCACUACGAAAUCUUGAGACCGGGCGUUCGACCCGCCCCCGGGAGAUUUUUUCCUCGAGCAA [G7A U63C U76C] | ≤ 0.026
CUCUCGAUAGCCAAGUUGGUUUAAGGCGCAAGACUUUAAUUUAUCACUACGAAAUCUUGAGAUCGGGCGAUCGACUCGCCCCCGGGAGAUUUUUUCCUCGAGCAA [G7A U70A] | ≤ 0.026
CUCUCGAUAGCCAAGUUGGUUUAAGGCGCAAGACUUUAAUUUAUCACUACGAAAUCUUGAGAUCGGGCGUUCGACCCGCCCCCGGGAUAUUUUUUCCUCGAGCAA [G7A U76C G88U] | ≤ 0.026
CUCUCGCUCGCCAAGUUGGUUUAAGGCGCAAGACUUUAAUUUAUCACUACGAAAUCUUGAGAUCGGGCGUUCGACUCGCCCCCGGGAGAUUUUUUCCUCGAGCAA [G7C A9C] | ≤ 0.026
CUCUCGCUGGACAAGUUGGUUUAAGGCGCAAGACUUUAAUUUAUCACUACGAAAUCUUGACAUCGGGCGUUCGACUCGCCCCCGGGAGAUUUUUUCCUCGAGCAA [G7C A9G C11A G61C] | ≤ 0.026
CUCUCGCUUGCCAAGUUGGUUUAAGGCGCAAGACUUUAAUUUAUCACUACGAAAUCUUGAGAUCGGGCGUUCGACUCGCCCCCGGGAGAUUUUUUCCUCGAGCAA [G7C A9U] | 0.0428
CUCUCGCUUGCCAAGUUGGUUUAAGGCGCAAGACUUUAAUUUAUCACUACGAAAUCUUCAGAUCGGGCGUUCGACUCGCCCCCGGCAGAUUUUUUCCUCGAGCAA [G7C A9U G59C G86C] | ≤ 0.026
CUCUCGCUUGCCAAGUGGGUUUAAGGCGCAAGACUUUAAUUUAUCACUACGAAAUCUUGAGAUCGGGCGUUCGACUUGCCCCCGGGACAUUUUUUCCUCGAGCAA [G7C A9U U17G C77U G88C] | ≤ 0.026
